Whole data set: some 33,000 sequences, median “E-score (dimensionless, -0.5 to 0.5)” near -0.058, cut for the highest 2% near 0.35. Some of the results follow.
test system: MvaT; assay: PBM 8-mer E-score (mean of HK and ME arrays) (E-score (dimensionless, -0.5 to 0.5)); higher = stronger relative binding preference; most listed sequences are background and not binding sites
How it was run: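 Full-length P. aeruginosa MvaT carrying an N-terminal glutathione S-transferase tag was tested by protein binding microarray following a previously described protocol. Two universal double-stranded 60-mer arrays, ME and HK, were used, each with a constant 25-mer primer region and a variable 35-mer region covering all 8-mers. The rank-based E-score is the mean of the two arrays, parsed with a custom script. Its range runs from -0.5 to 0.5 for each 8-mer.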

Sequence | PBM 8-mer E-score
TGAGGAAA | 0.0797
AAGCGCGT | 0.0364
AAGAGTAG | 0.0495
ACATTCGC | 0.0882
AAGTGGGT | 0.0357
ACTCACTA | 0.164
ATCGGCAG | -0.226
GTAGGCTA | -0.214
ATACAACA | 0.331
ACAAACGG | 0.1
AGAGCTCC | -0.307
CATCGTGA | -0.157
ATAGTGGA | 0.176
CGTTCGTC | -0.101
CTGTGAAC | -0.0385
CTTTAGCC | -0.049
GGCCCCTA | -0.222
CCCTTATC | 0.0147
TAGGTCGA | -0.061
GACAACGA | -0.00433
ATCAATAC | 0.165
GAGATGCC | -0.168
ACTTAACC | 0.119
GAGCTCCC | -0.337
ATCAGGAG | -0.0972

Sequence | PBM 8-mer E-score
AGCGCCAC | -0.262
AAAAGATC | 0.00329
TGAAGTAA | 0.222
TACCTGGA | -0.0284
AGCTTCAC | -0.188
CTTATTCC | 0.221
CGGCGACC | -0.285
ATAGAGAC | 0.0828
ATACAGAC | 0.0447
GTAAGTAA | 0.207
CGAGTAGC | -0.253
GTAGATCA | -0.0662
GAGATAAC | 0.0136
CCCTGTCG | -0.141
AGCCTAAA | -0.112
ATCAGGTA | -0.166
CACATGCA | -0.0297
AAGTGGAC | -0.113
ATAGTGAG | 0.136
TGCTATAA | 0.285
AATAAATT | 0.436
ACATGCGC | -0.144
AAGGGGAC | -0.238
ATCTACAA | 0.125
GTAATCTA | 0.151

Sequence | PBM 8-mer E-score
CACCATGG | -0.25
ACGCGCTC | -0.254
GGCTTTCA | -0.087
GTTTCACA | -0.00657
CGTTGGAG | -0.203
CCTAGAGC | -0.177
CACGCCTA | -0.207
CGGATTAC | 0.0302
AGTCAAAG | 0.00141
ACGCACAA | 0.0568
AATGAAGG | 0.0758
ACGTGCCC | -0.0699
GCCGCCCA | -0.166
GACTGCCA | -0.167
AGTCTGGA | -0.0331
AACAAACG | 0.15
GCTTCCTA | -0.229
CCTCGATA | -0.179
CAGAGAAC | -0.0742
TTAGGGAA | 0.0483
AGGCACGA | -0.222
ATGAAAGC | 0.111
TCTCTACA | 0.00127
GCGGTCCC | -0.33
GCGCACAC | -0.217

Sequence | PBM 8-mer E-score
CGCAACGC | -0.12
CAAGTCAC | -0.00509
GAGCACCC | -0.0692
GGGGATAC | -0.152
ACAGTTTA | 0.205
CAGATTTC | 0.00487
ACTTTATA | 0.39
ACATGTGA | 0.139
CAGGGTGG | -0.217
CTGTTGAC | -0.17
ATACAAGC | 0.109
CGACTGGC | -0.15
CACATATC | 0.178
ATCTGAGA | -0.0981
ATTCTACC | 0.0658
GATGACCA | -0.0801
CAAAATAA | 0.343
ACGTCCTC | -0.333
AGATACGC | -0.0797
ATGTTCGA | 0.0937
ATTGACTC | 0.0485
GCTCGGTA | -0.00285
AGCATAAC | 0.13
TACGGATA | -0.079
GTCAGGGA | -0.136

Sequence | PBM 8-mer E-score
GGCAGACA | 0.0225
GCCCCAAA | -0.0927
TCGCTTCA | -0.0426
GCTTGAAA | -0.0119
GCGCTTCC | -0.242
ATAACGTC | 0.125
ACCGCAAG | -0.176
CTTTGTCA | -0.0285
AGACTTCC | -0.21
GATCATAC | 0.0972
AGGAATGG | -0.0828
AATACACC | 0.181
CGACCTAG | -0.0474
CGCGTGTA | -0.0576
CGATTTTC | 0.0289
ACGCGTCG | -0.0515
AGATCTGA | -0.0177
CCTAGTCC | -0.209
TCTGTACA | -0.034
GTCGCTCA | -0.19
AAGGCGGG | -0.245
CTCAGCCC | -0.175
AGCTACGA | -0.0769
CATTCTCC | -0.185
TCCTTCAA | -0.14

Sequence | PBM 8-mer E-score
ACGATGTG | -0.0662
TCCATCCA | -0.156
CTCCACCC | -0.26
TGTGAAAA | 0.124
ACATATAG | 0.264
AAGGAACT | 0.0181
CGAATTGA | -0.0176
GATTGCAC | 0.0202
AAGATGGT | 0.0543
ACAGGACT | -0.164
GATCAGGA | -0.0389
GATAGATA | 0.0346
ACGTAAAG | -0.0111
AAACGACA | 0.118
AGTATTGA | 0.227
CCTCTGCG | -0.297
TACGATGA | 0.0706
ACCCTACC | -0.0835
CTTGTGCA | -0.0227
AGAGCGTA | -0.0436
CCTGTAGC | -0.247
CTCTGGGC | -0.139
GCCTTAAC | 0.0617
AACACCGG | 0.104
CGAGGCGC | -0.253

Sequence | PBM 8-mer E-score
AACCGGGG | -0.213
AGGGGTAA | -0.0363
ATCGAGAG | -0.00233
AGTGAGCA | -0.0559
CGACGCGC | -0.182
CGAACCGC | -0.161
TATCATAA | 0.315
AATGACGC | -0.183
GACGCGCA | -0.188
ACTATTTC | 0.201
ACCCCCCG | -0.213
GACTAGTA | 0.0129
ATTTATTA | 0.434
TTTGAAAA | 0.213
AATCAGAA | 0.124
ATCTCCAT | 0.0219
AATTTGAG | 0.13
GGACTGAC | -0.303
CACTGTCG | -0.143
GGCCAGCC | -0.315
ACAAGCTC | -0.124
CGAAGGAC | -0.189

Reference: the supplement of paper PMC4466236
